Reference: patent US20170107257A1, “CYCLIC APELIN ANALOGS” (LANTHIOPEP B.V., priority 2014, published 2017)
At least one peptide structure holds a part that was inferred or is arguable (an end, a ring closure or a residue). For some of these results: At least one structure is not confirmed: it was looked up by name or label, or the drawing left a doubt. Numbered stars: 1 amine (or outer) side, 2 acyl side, 3 side chain; on linkers, the order of the positions; unused ones are H or OH. Bridge positions count the residues as written; N and C are the ends. Square brackets hold non-standard residues; d marks the D form. Peptide text beside a SMILES is read from it. ξ: configuration not given here. ξAbu(3ξ-yl) = CC(C(N[*:1])C(=O)[*:2])[*:3]; pGlu = O=C1CC[C@@H](C(=O)O)N1

Assays:
hAPJ [1] = target: T1, hAPJ (Homo sapiens, UniProt P35414); experiment: beta arrestin assay (DiscoverX); type: cell-based; details: for Ratio β-arrestin/cAMP: ratio of β-arrestin EC50 to cAMP EC50; for EC50: read-out: β-arrestin EC50
T1 sequence (P35414 1-380): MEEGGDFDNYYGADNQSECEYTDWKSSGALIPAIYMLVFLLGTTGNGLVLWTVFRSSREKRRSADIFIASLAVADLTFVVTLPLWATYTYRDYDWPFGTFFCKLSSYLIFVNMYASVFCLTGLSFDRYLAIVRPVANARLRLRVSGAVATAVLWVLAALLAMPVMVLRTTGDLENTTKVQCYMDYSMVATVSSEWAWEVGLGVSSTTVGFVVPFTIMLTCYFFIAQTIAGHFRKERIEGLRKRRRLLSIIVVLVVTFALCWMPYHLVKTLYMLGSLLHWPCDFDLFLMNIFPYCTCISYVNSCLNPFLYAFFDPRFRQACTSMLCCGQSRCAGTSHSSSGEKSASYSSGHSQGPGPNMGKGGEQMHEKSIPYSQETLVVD

hAPJ [2] = target: T1, hAPJ; experiment: cAMP assay (DiscoverX); type: cell-based
hAPJ [3] = target: T1, hAPJ; experiment: APJ competition binding assay ([125I]-Apelin 13, SPA, HEK293 membranes); parameters: expressed in transfected cells; host or cells: HEK293, adenoviral transduction (Ad-GFP-hAPJ); details: for IC50: competition with 0.06 nM [Glp65,Nle75,Tyr77][125I]-Apelin 13, read-out: Relative IC50, hAPJ BINDING
[4] = target: T2, HEK293 cells expressing recombinant APJ receptors (Homo sapiens, UniProt P35414); experiment: Forskolin-stimulated cAMP assay (HTRF); type: cell-based; details: 10 μM forskolin, 0.5 mM IBMX, 40 min; read-out: Relative EC50 (nM), cAMP
T2 construct: expressed in transfected cells; host or cells: HEK293
T2 sequence (P35414 1-380): T1 sequence (P35414 1-380)

hAPJ [5] = target: T3, hAPJ (Homo sapiens, UniProt P35414); experiment: hAPJ β-arrestin recruitment assay (PathHunter, CHO-K1); type: cell-based; details: 90 min incubation at 37° C.; read-out: Relative EC50, Arrestin recruitment
T3 construct: host or cells: CHO-K1

hAPJ [6] = target: T1, hAPJ; experiment: hAPJ receptor internalization assay (APJ-GFP translocation, HEK293); type: cell-based; parameters: expressed in transfected cells; host or cells: HEK293, adenoviral transduction (Ad-GFP-hAPJ); details: 500 nM max, read-out: Relative EC50 (nM), hAPJ internalisation

Row | Ratio β-arrestin/cAMP (hAPJ [1]) | EC50 (hAPJ [1]) | EC50 (hAPJ [2]) | binding to the APJ receptor (hAPJ [3]) | IC50 (hAPJ [3]) | EC50 [4] | EC50 (hAPJ [5]) | EC50 (hAPJ [6]) | Compound
1 | 8.8 | 5.3 nM | 0.6 nM | – | – | – | – | – | CSCC[C@@H]1NC(=O)[C@@H]2CCCN2C(=O)CNC(=O)[C@H](CCCCN)NC(=O)[C@H](Cc2c[nH]cn2)NC(=O)C(NC(=O)[C@H](CC(C)C)NC(=O)[C@H](CCCNC(=N)N)NC(=O)[C@@H]2CCCN2C(=O)[C@H](CCCNC(=N)N)NC(=O)[C@@H]2CCC(=O)N2)CSC[C@@H](C(=O)N[C@@H](Cc2ccccc2)C(=O)O)NC1=O (stereo partly shown) [pEApeM26S I, pERPRLLanHKGPMLanF]
2 | – | – | – | does not bind | > 1000 nM | > 300 nM | > 300 nM | 36 nM | CSCC[C@H](NC(=O)[C@@H]1CCCN1C(=O)CNC(=O)[C@@H]1CSC(C)C(NC(=O)[C@H](CC(C)C)NC(=O)[C@H](CCCNC(=N)N)NC(=O)[C@@H]2CCCN2C(=O)[C@H](CCCNC(=N)N)NC(=O)[C@@H]2CCC(=O)N2)C(=O)N[C@@H](Cc2c[nH]cn2)C(=O)N[C@@H](CCCCN)C(=O)N1)C(=O)N1CCC[C@H]1C(=O)N[C@@H](C)C(=O)O (stereo partly shown) [pERPRLmeLanHKmeLanGPMPA] ([pGlu]RPRL[ξAbu(3ξ-yl)]HKCGPMPA-OH; thioether 6-9)
3 | – | 149 nM | – | – | – | – | – | – | CSCC[C@H](NC(=O)[C@@H]1CCCN1C(=O)[C@@H]1CSCC(NC(=O)[C@H](CC(C)C)NC(=O)[C@H](CCCNC(=N)N)NC(=O)[C@@H]2CCCN2C(=O)[C@H](CCCNC(=N)N)NC(=O)[C@@H]2CCC(=O)N2)C(=O)N[C@@H](C)C(=O)N[C@@H](Cc2c[nH]cn2)C(=O)N[C@@H](CCCCN)C(=O)N1)C(=O)N1CCC[C@H]1C(=O)N[C@@H](Cc1ccccc1)C(=O)O (stereo partly shown) [pEApeI5cS I, pERPRLLanAHKLanPMPF]
4 | 18 | 500 nM | 27 nM | – | – | – | – | 33 nM | CSCC[C@H](NC(=O)[C@@H]1CCCN1C(=O)[C@@H]1CSC(C)C(NC(=O)[C@H](CC(C)C)NC(=O)[C@H](CCCNC(=N)N)NC(=O)[C@@H]2CCCN2C(=O)[C@H](CCCNC(=N)N)NC(=O)[C@@H]2CCC(=O)N2)C(=O)N[C@@H](Cc2c[nH]cn2)C(=O)N[C@@H](CCCCN)C(=O)NCC(=O)N1)C(=O)N1CCC[C@H]1C(=O)N[C@@H](Cc1ccccc1)C(=O)O (stereo partly shown) [pEApeM7, pERPRLmeLanHKGmeLanPMPF] ([pGlu]RPRL[ξAbu(3ξ-yl)]HKGCPMPF-OH; thioether 6-10)
5 | >16 | > 10000 nM | 600 nM | – | – | – | – | – | CSCC[C@H](NC(=O)[C@@H]1CSCC(NC(=O)[C@H](CC(C)C)NC(=O)[C@H](CCCNC(=N)N)NC(=O)[C@@H]2CCCN2C(=O)[C@H](CCCNC(=N)N)NC(=O)[C@@H]2CCC(=O)N2)C(=O)N[C@@H](Cc2c[nH]cn2)C(=O)N[C@@H](CCCCN)C(=O)NCC(=O)N2CCC[C@H]2C(=O)N1)C(=O)N1CCC[C@H]1C(=O)N[C@@H](Cc1ccccc1)C(=O)O (stereo partly shown) [pEApeM12S, pERPRLLanHKGPLanMPF]

Continued, molecule first:

Row | Compound | Ratio β-arrestin/cAMP (hAPJ [1]) | EC50 (hAPJ [1]) | EC50 (hAPJ [2]) | binding to the APJ receptor (hAPJ [3]) | IC50 (hAPJ [3]) | EC50 [4] | EC50 (hAPJ [5]) | EC50 (hAPJ [6])
6 | CSCC[C@H](NC(=O)[C@@H]1CCCN1C(=O)CNC(=O)[C@@H]1CSCC(NC(=O)[C@H](CC(C)C)NC(=O)[C@H](CCCNC(=N)N)NC(=O)[C@@H]2CCCN2C(=O)[C@H](CCCNC(=N)N)NC(=O)[C@@H]2CCC(=O)N2)C(=O)N[C@@H](C)C(=O)N[C@@H](Cc2c[nH]cn2)C(=O)N[C@@H](CCCCN)C(=O)N1)C(=O)N1CCC[C@H]1C(=O)N[C@@H](Cc1ccccc1)C(=O)O (stereo partly shown) [pEApeI5dS II, pERPRLLanAHKLanGPMPF] | 64 | 155 nM | 2.4 nM | – | – | – | – | –
7 | CSCC[C@H](NC(=O)[C@@H]1CCCN1C(=O)CNC(=O)[C@@H]1CSC(C)C(NC(=O)[C@H](CC(C)C)NC(=O)[C@H](CCCNC(=N)N)NC(=O)[C@@H]2CCCN2C(=O)[C@H](CCCNC(=N)N)NC(=O)[C@@H]2CCC(=O)N2)C(=O)N[C@@H](Cc2c[nH]cn2)C(=O)N[C@@H](CCCCN)C(=O)N1)C(=O)N[C@H](C(=O)N[C@@H](Cc1ccccc1)C(=O)O)C(C)C (stereo partly shown) [pERPRLmeLanHKmeLanGPMVF] ([pGlu]RPRL[ξAbu(3ξ-yl)]HKCGPMVF-OH; thioether 6-9) | – | – | – | abolish binding | > 1000 nM | > 300 nM | > 300 nM | > 1000 nM
8 | CC(C)C[C@H](NC(=O)[C@H](CCCNC(=N)N)NC(=O)[C@@H]1CCCN1C(=O)[C@H](CCCNC(=N)N)NC(=O)[C@@H]1CCC(=O)N1)C(=O)NC1CSCC(C(=O)N2CCC[C@H]2C(=O)N[C@@H](Cc2ccccc2)C(=O)O)NC(=O)[C@@H]2CCCN2C(=O)CNC(=O)[C@H](CCCCN)NC(=O)[C@H](Cc2c[nH]cn2)NC1=O (single isomer, unassigned) [pEApeM9S II, pERPRLLanHKGPLanPF] | – | 40 nM | 0.2 nM | – | – | – | – | –
9 | CSCC[C@@H]1NC(=O)[C@@H]2CCCN2C(=O)CNC(=O)[C@H](CCCCN)NC(=O)[C@H](Cc2c[nH]cn2)NC(=O)C(NC(=O)[C@H](CC(C)C)NC(=O)[C@H](CCCNC(=N)N)NC(=O)[C@@H]2CCCN2C(=O)[C@H](CCCNC(=N)N)NC(=O)[C@@H]2CCC(=O)N2)CSCC(C(=O)N2CCC[C@H]2C(=O)N[C@@H](Cc2ccccc2)C(=O)O)NC1=O (single isomer, unassigned) [pEApeM27S I, pERPRLLanHKGPMLanPF] | – | 149 nM | 3 nM | – | – | – | – | –
10 | CC(C)C[C@H](NC(=O)[C@H](CCCNC(=N)N)NC(=O)[C@@H]1CCCN1C(=O)[C@H](CCCNC(=N)N)NC(=O)[C@@H]1CCC(=O)N1)C(=O)NC1CSC[C@@H](C(=O)N2CCC[C@H]2C(=O)N[C@@H](Cc2ccccc2)C(=O)O)NC(=O)[C@@H]2CCCN2C(=O)CNC(=O)[C@H](CCCCN)NC(=O)[C@H](Cc2c[nH]cn2)NC1=O (stereo partly shown) [pEApeM9S I, pERPRLLanHKGPLanPF] | 84 | 520 nM | 18 nM | – | – | – | – | –
11 | CSCC[C@H](NC(=O)[C@@H]1CCCN1C(=O)CNC(=O)[C@@H]1CSC(C)C(NC(=O)[C@H](CC(C)C)NC(=O)[C@H](CCCNC(=N)N)NC(=O)[C@@H]2CCCN2C(=O)[C@H](CCCNC(=N)N)NC(=O)[C@@H]2CCC(=O)N2)C(=O)N[C@@H](Cc2c[nH]cn2)C(=O)N[C@@H](CCCCN)C(=O)N1)C(=O)N1CCC[C@H]1C(=O)N[C@@H](Cc1ccccc1)C(=O)O (stereo partly shown) [pEApeM6, pERPRLmeLanHKmeLanGPMPF] ([pGlu]RPRL[ξAbu(3ξ-yl)]HKCGPMPF-OH; thioether 6-9) | 4 | 93 nM | 21 nM | – | 186 nM | 19.6 nM | – | 207 nM
